Data from the supplement of paper PMC7125110.
± gives the standard error. For part of these data: Variants at the floor of the assay are shown more often than the library holds them.

B1: glmS ribozyme (parent)
chain: AUAAAAGCGCCAGAACUACAGAAAUGUAGUUGACGAGGAGGAGGUUUAUCGAAUUUUCGGCGGAUGCCUCCAAA

What was measured:
Settings in all cases: with glucosamine-6-phosphate
glucosamine-6-phosphate [1] = variants of: B1; assay: self-cleavage kobs at 160 uM GlcN6P; higher = faster cleavage; RNA array
Summary of the method: (§1)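 E. coli RNA polymerase transcribed barcoded ribozyme variants in situ on sequenced MiSeq chips, which were tracked via a hybridised Cy3 probe at 37 °C. Tiles were imaged over ~14 h after glucosamine-6-phosphate (40 μM to 10 mM) in HEPES/KCl/Mg(OAc)2 buffer was flowed in. Normalised per-tile medians were fit to one- or two-exponential decays for kobs, and kcat and KM came from weighted Michaelis–Menten fits.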

glucosamine-6-phosphate [2] = variants of: B1; assay: self-cleavage kobs at 2500 uM GlcN6P; higher = faster cleavage; RNA array
Summary of the method: as §1

glucosamine-6-phosphate [3] = variants of: B1; assay: self-cleavage kobs at 640 uM GlcN6P; higher = faster cleavage; RNA array
Summary of the method: as §1

glucosamine-6-phosphate [4] = variants of: B1; assay: self-cleavage kobs at 10000 uM GlcN6P; higher = faster cleavage; RNA array
Summary of the method: as §1

U31G A33C G37C
self-cleavage kobs at 160 uM GlcN6P (glucosamine-6-phosphate [1]): < 1e-05 s⁻¹

C8G G59A C70G
self-cleavage kobs at 160 uM GlcN6P (glucosamine-6-phosphate [1]): < 1e-05 s⁻¹

A6C C10G C11U
self-cleavage kobs at 160 uM GlcN6P (glucosamine-6-phosphate [1]): < 1e-05 s⁻¹
self-cleavage kobs at 2500 uM GlcN6P (glucosamine-6-phosphate [2]): < 1e-05 s⁻¹

C8U G9C G62A U65G
self-cleavage kobs at 160 uM GlcN6P (glucosamine-6-phosphate [1]): < 1e-05 s⁻¹
self-cleavage kobs at 2500 uM GlcN6P (glucosamine-6-phosphate [2]): < 1e-05 s⁻¹

U31A C50A G51U A53G
self-cleavage kobs at 160 uM GlcN6P (glucosamine-6-phosphate [1]): < 1e-05 s⁻¹

A14U G37A G38U
self-cleavage kobs at 160 uM GlcN6P (glucosamine-6-phosphate [1]): < 1e-05 s⁻¹

G62C C70G C71A
self-cleavage kobs at 640 uM GlcN6P (glucosamine-6-phosphate [3]): 6.26e-05 ± 2.7e-05 s⁻¹
self-cleavage kobs at 2500 uM GlcN6P (glucosamine-6-phosphate [2]): 5.21e-05 ± 2.2e-05 s⁻¹

A33G G38A G40A
self-cleavage kobs at 160 uM GlcN6P (glucosamine-6-phosphate [1]): < 1e-05 s⁻¹
self-cleavage kobs at 2500 uM GlcN6P (glucosamine-6-phosphate [2]): < 1e-05 s⁻¹
self-cleavage kobs at 10000 uM GlcN6P (glucosamine-6-phosphate [4]): < 1e-05 s⁻¹

C11G U45C C71G
self-cleavage kobs at 160 uM GlcN6P (glucosamine-6-phosphate [1]): < 1e-05 s⁻¹
self-cleavage kobs at 2500 uM GlcN6P (glucosamine-6-phosphate [2]): < 1e-05 s⁻¹

G26U A52G
self-cleavage kobs at 160 uM GlcN6P (glucosamine-6-phosphate [1]): 9.82e-05 ± 2.9e-05 s⁻¹

G13U A36C G38U A39C
self-cleavage kobs at 160 uM GlcN6P (glucosamine-6-phosphate [1]): < 1e-05 s⁻¹
self-cleavage kobs at 10000 uM GlcN6P (glucosamine-6-phosphate [4]): < 1e-05 s⁻¹

A15U G41A G66C
self-cleavage kobs at 160 uM GlcN6P (glucosamine-6-phosphate [1]): < 1e-05 s⁻¹

G29U C34U G63U C68U C70A
self-cleavage kobs at 160 uM GlcN6P (glucosamine-6-phosphate [1]): < 1e-05 s⁻¹

A6C A36G G40A G60U
self-cleavage kobs at 160 uM GlcN6P (glucosamine-6-phosphate [1]): < 1e-05 s⁻¹
self-cleavage kobs at 2500 uM GlcN6P (glucosamine-6-phosphate [2]): < 1e-05 s⁻¹

C10G C16G A42G
self-cleavage kobs at 160 uM GlcN6P (glucosamine-6-phosphate [1]): < 1e-05 s⁻¹

A12C G37A C58A
self-cleavage kobs at 160 uM GlcN6P (glucosamine-6-phosphate [1]): < 1e-05 s⁻¹

A14U U57C G66U
self-cleavage kobs at 160 uM GlcN6P (glucosamine-6-phosphate [1]): < 1e-05 s⁻¹

C10G U31C U49A G60C
self-cleavage kobs at 160 uM GlcN6P (glucosamine-6-phosphate [1]): < 1e-05 s⁻¹

C67G C68U
self-cleavage kobs at 640 uM GlcN6P (glucosamine-6-phosphate [3]): 5.35e-05 ± 6.6e-06 s⁻¹
self-cleavage kobs at 160 uM GlcN6P (glucosamine-6-phosphate [1]): 2.51e-05 ± 1e-05 s⁻¹
self-cleavage kobs at 2500 uM GlcN6P (glucosamine-6-phosphate [2]): 6.33e-05 ± 6e-06 s⁻¹
self-cleavage kobs at 10000 uM GlcN6P (glucosamine-6-phosphate [4]): 6.92e-05 ± 6.7e-06 s⁻¹

C16G A39G C58U
self-cleavage kobs at 160 uM GlcN6P (glucosamine-6-phosphate [1]): < 1e-05 s⁻¹

G32U C34A G40C U57A G62U
self-cleavage kobs at 160 uM GlcN6P (glucosamine-6-phosphate [1]): < 1e-05 s⁻¹

G7U A12G G32U
self-cleavage kobs at 160 uM GlcN6P (glucosamine-6-phosphate [1]): < 1e-05 s⁻¹

G7A A12C A39G
self-cleavage kobs at 160 uM GlcN6P (glucosamine-6-phosphate [1]): < 1e-05 s⁻¹

G29A C58G U65G
self-cleavage kobs at 160 uM GlcN6P (glucosamine-6-phosphate [1]): < 1e-05 s⁻¹

C11U C34U G66C
self-cleavage kobs at 160 uM GlcN6P (glucosamine-6-phosphate [1]): < 1e-05 s⁻¹
self-cleavage kobs at 2500 uM GlcN6P (glucosamine-6-phosphate [2]): < 1e-05 s⁻¹

C19A G35A A48U U65A
self-cleavage kobs at 160 uM GlcN6P (glucosamine-6-phosphate [1]): < 1e-05 s⁻¹

G9A G38A A64G
self-cleavage kobs at 160 uM GlcN6P (glucosamine-6-phosphate [1]): < 1e-05 s⁻¹
self-cleavage kobs at 2500 uM GlcN6P (glucosamine-6-phosphate [2]): < 1e-05 s⁻¹

G29A G35C A36C
self-cleavage kobs at 160 uM GlcN6P (glucosamine-6-phosphate [1]): < 1e-05 s⁻¹

C8U A14C G44U A48G A52C
self-cleavage kobs at 160 uM GlcN6P (glucosamine-6-phosphate [1]): < 1e-05 s⁻¹

C11A A42G A53C
self-cleavage kobs at 160 uM GlcN6P (glucosamine-6-phosphate [1]): < 1e-05 s⁻¹

C11A C16A
self-cleavage kobs at 160 uM GlcN6P (glucosamine-6-phosphate [1]): < 1e-05 s⁻¹

U69G C70A
self-cleavage kobs at 640 uM GlcN6P (glucosamine-6-phosphate [3]): 5.13e-05 ± 9.1e-06 s⁻¹
self-cleavage kobs at 160 uM GlcN6P (glucosamine-6-phosphate [1]): 4.55e-05 ± 1.3e-05 s⁻¹
self-cleavage kobs at 2500 uM GlcN6P (glucosamine-6-phosphate [2]): 7.85e-05 ± 1.2e-05 s⁻¹

A14G A15U G38A A39U A42G A52C U69A
self-cleavage kobs at 160 uM GlcN6P (glucosamine-6-phosphate [1]): < 1e-05 s⁻¹
self-cleavage kobs at 2500 uM GlcN6P (glucosamine-6-phosphate [2]): < 1e-05 s⁻¹

G13C G41C
self-cleavage kobs at 160 uM GlcN6P (glucosamine-6-phosphate [1]): < 1e-05 s⁻¹

A6G A33G G40A U47G U54C C70U C71U
self-cleavage kobs at 160 uM GlcN6P (glucosamine-6-phosphate [1]): < 1e-05 s⁻¹
